The source of these data is paper PMC6212790.

The other results are listed elsewhere or left out. At the low end of the ranking the order means little.

The target of this experiment is T1, GST-Rok (full length) (UniProt O34857).
T1 sequence: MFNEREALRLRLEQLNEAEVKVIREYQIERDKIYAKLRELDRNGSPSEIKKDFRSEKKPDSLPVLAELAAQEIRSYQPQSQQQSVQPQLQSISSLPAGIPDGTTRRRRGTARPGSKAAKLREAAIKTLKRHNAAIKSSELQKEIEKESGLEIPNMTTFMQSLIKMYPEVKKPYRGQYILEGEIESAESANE
The experiment is described as follows: protein binding microarray.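 Note: rank score from −0.5 (least bound) to 0.5 (best bound).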 The following applies: Rok is a gene silencer of Bacillus subtilis; high values mean tight binding; most listed sequences are background and not binding sites; double strand, one strand shown.
For the sequence TCAAGGCA, the binding signal was -0.208 E-score.

As for CCAGCGCG, the binding signal is -0.192 E-score.

AAACCTCC registered a binding signal of -0.125 E-score.

The sequence CGCCTCCG showed a binding signal of -0.288 E-score.

AGCAATGA yielded a binding signal of -0.134 E-score.

Turning to AATGTATG, the binding signal was 0.272 E-score.

Consider CGTTCCCA, for which the binding signal was -0.163 E-score.

In turn, GTGTGAAA showed a binding signal of -0.138 E-score.

Sequence GAATCGAC gave a binding signal of 0.0717 E-score.

The sequence GAAGTCAA registered a binding signal of -0.019 E-score.

Take GCAGCGGC: the binding signal was -0.328 E-score.

CGTAAGAC had a binding signal of 0.0556 E-score.

On to ACTCACCG, for which the binding signal amounted to 0.07 E-score.

CTTGAAAC yielded a binding signal of -0.141 E-score.

With CTGGTAGA, the binding signal came to 0.335 E-score.

In the case of GCCTTCGC, the binding signal was -0.165 E-score.

In the case of GTTAATCA, the binding signal came out at 0.0792 E-score.

In turn, GGCGTATA came in with a binding signal of 0.0667 E-score.

AAATTGTT returned a binding signal of 0.238 E-score.

Consider AATGTTCT, for which the binding signal is 0.149 E-score.

With AGTACCGC, the binding signal is -0.12 E-score.

AGTTGAAT had a binding signal of 0.0921 E-score.

For ACCAGATC, the binding signal is -0.15 E-score.

Regarding ACTATCGA, the binding signal stood at 0.325 E-score.

Turning to CGAGCTCA, the binding signal is -0.216 E-score.

For the sequence CTGGGCTC, the binding signal was -0.388 E-score.

On to ACCCGTAA, for which the binding signal was -0.0332 E-score.

Take TGGCTTAA: the binding signal is -0.0862 E-score.

For CCGTAACA, the binding signal came out at 0.0529 E-score.

Turning to AAGAAAGA, the binding signal is -0.0387 E-score.

CCCTGCTA returned a binding signal of -0.128 E-score.

As to CGACACAG, the binding signal was -0.021 E-score.

Turning to TAAGAGGA, the binding signal is -0.15 E-score.

In turn, GGTCGGTA yielded a binding signal of -0.144 E-score.

As to GAAGTGAC, the binding signal is -0.161 E-score.

GCCGACCC registered a binding signal of -0.375 E-score.

Regarding ATATGAAG, the binding signal was found to be 0.107 E-score.

In turn, CTATGCAA had a binding signal of 0.118 E-score.

In turn, CTGAGCAC showed a binding signal of -0.124 E-score.

AAGTTCAA displayed a binding signal of 0.0858 E-score.

With ATTGGTAA, the binding signal was 0.265 E-score.

With CACTACAG, the binding signal is -0.0355 E-score.

As for AGCACTGA, the binding signal is -0.136 E-score.

The sequence GGGAGTCA yielded a binding signal of -0.189 E-score.

GCCCAGGA: the binding signal is -0.196 E-score.

Regarding ACCTAAAA, the binding signal stood at 0.306 E-score.

In turn, CCAGTATA gave a binding signal of 0.235 E-score.

Turning to GTTTGGGA, the binding signal was 0.0158 E-score.

For CAGCCAAC, the binding signal was -0.0888 E-score.

In turn, CCGCGAAA had a binding signal of -0.00967 E-score.

AGTACTCC showed a binding signal of -0.106 E-score.

In turn, TCACAGAA returned a binding signal of 0.0426 E-score.

Sequence AGATTATA showed a binding signal of 0.276 E-score.

Consider AAGGTGTA, for which the binding signal came to 0.028 E-score.

In turn, CCACATAC came in with a binding signal of 0.181 E-score.

Take ACGTATTA: the binding signal came out at 0.287 E-score.

CATGAATC registered a binding signal of 0.0791 E-score.

Take AGATCGGA: the binding signal was 0.035 E-score.

The sequence AGTTGGCC displayed a binding signal of -0.0479 E-score.

As to TATGCAGA, the binding signal was 0.182 E-score.

AAACAGAG: the binding signal is -0.0699 E-score.

ACCAGGCC showed a binding signal of -0.307 E-score.

Sequence AGTTAGAC displayed a binding signal of 0.211 E-score.

For ATTAGCGG, the binding signal was 0.239 E-score.

The sequence AGGAGCAG came in with a binding signal of -0.336 E-score.

As to ACTAGACC, the binding signal is -0.00464 E-score.

With CGTTCTCC, the binding signal was -0.177 E-score.

Consider ACTGATCT, for which the binding signal came out at 0.00895 E-score.

Take CAACGTAG: the binding signal was 0.239 E-score.

The sequence AGAAATCA registered a binding signal of 0.14 E-score.

The sequence ACGGCGAA yielded a binding signal of -0.116 E-score.

In turn, ACGTACCA returned a binding signal of 0.24 E-score.

In turn, ATGTCAAC came in with a binding signal of 0.143 E-score.

Sequence TCACTCAA had a binding signal of 0.112 E-score.

Take AGAGGGAC: the binding signal is -0.32 E-score.

Regarding CAGACGTC, the binding signal is -0.0654 E-score.

The sequence CCTGCATA registered a binding signal of 0.0724 E-score.

Turning to ATACAACG, the binding signal was 0.167 E-score.

CAATCAAC gave a binding signal of 0.0637 E-score.

In the case of GACTTCAA, the binding signal is -0.152 E-score.

For AGCCCTAG, the binding signal was -0.224 E-score.

With GTCTTCAA, the binding signal was found to be 0.00975 E-score.

On to ATATCTTG, for which the binding signal turned out to be 0.208 E-score.

As for AGCTACCA, the binding signal came out at 0.358 E-score.

GGATCACC displayed a binding signal of -0.00151 E-score.

Turning to CCTTGTGA, the binding signal was -0.0497 E-score.

Take CTAAACCA: the binding signal came to 0.189 E-score.

The sequence CTAACAAG had a binding signal of 0.0913 E-score.

TCCATCGA came in with a binding signal of -0.0553 E-score.

Turning to CTACTCAA, the binding signal is 0.0993 E-score.

Sequence GCCTTTGA had a binding signal of -0.246 E-score.

As for CCGTATGC, the binding signal is -0.123 E-score.

In turn, CCTTATGA gave a binding signal of 0.0154 E-score.

For the sequence TGCCGACA, the binding signal was -0.103 E-score.

CAGGATAG gave a binding signal of 0.0861 E-score.

On to ATGTACCG, for which the binding signal was 0.264 E-score.

CATGTTTA: the binding signal worked out at 0.0387 E-score.

Turning to AGACGATA, the binding signal came out at 0.0523 E-score.

The sequence ACCCTCCG came in with a binding signal of -0.334 E-score.

As for CAGTGGCA, the binding signal was -0.175 E-score.

As to TCTTTAAA, the binding signal is -0.0267 E-score.

The sequence AATGGTCG returned a binding signal of -0.163 E-score.

Sequence GAGGCCTC had a binding signal of -0.266 E-score.

For AGTCAAAG, the binding signal is -0.00276 E-score.

CCGGAGGA: the binding signal was -0.241 E-score.

CCGAGCAG: the binding signal was -0.222 E-score.

In turn, GTGATCAA returned a binding signal of -0.0698 E-score.

AGTACCAA gave a binding signal of 0.128 E-score.

AGAGCACA: the binding signal was -0.114 E-score.

Consider GAAATATA, for which the binding signal was 0.283 E-score.

Sequence ACACTGAC returned a binding signal of -0.134 E-score.

With AGTCTCCA, the binding signal came to 0.00349 E-score.

Regarding AGTGCTTC, the binding signal was -0.236 E-score.

In the case of TAACCCAA, the binding signal stood at 0.0896 E-score.

Turning to GAAGACCA, the binding signal was -0.161 E-score.

CGCTGAGC registered a binding signal of -0.0254 E-score.

Turning to GGCTCACA, the binding signal is -0.237 E-score.

As for GACTCGAC, the binding signal was -0.132 E-score.

In turn, CGCTTACA had a binding signal of -0.243 E-score.

As for ATGTAATA, the binding signal is 0.307 E-score.

The sequence GCCATCAC yielded a binding signal of -0.262 E-score.

For the sequence AGCGTAAT, the binding signal was found to be 0.172 E-score.

ACGAGCGT: the binding signal was -0.179 E-score.

Sequence CGTTCGTC displayed a binding signal of -0.173 E-score.

For the sequence AGATGACT, the binding signal was -0.00444 E-score.

As to CACGGAAC, the binding signal came out at 0.0407 E-score.

In turn, ATTGTGTA returned a binding signal of 0.316 E-score.

Sequence ATAGCTAA returned a binding signal of 0.311 E-score.

Regarding GAAGTTCA, the binding signal is -0.0166 E-score.

Consider GTCGGCTA, for which the binding signal was -0.0796 E-score.

Consider GGCGCCCA, for which the binding signal is -0.269 E-score.

Sequence AGGAGGTG had a binding signal of -0.166 E-score.

In the case of ACGTGTGG, the binding signal is -0.0706 E-score.

On to CACTTCCA, for which the binding signal was -0.0147 E-score.

In turn, CCCGGTAG displayed a binding signal of -0.134 E-score.

Take CGCCCCCC: the binding signal was -0.479 E-score.

Consider TCCAGACA, for which the binding signal was -0.183 E-score.

Turning to TCTTTTCA, the binding signal was -0.174 E-score.

The sequence TATCTAGA registered a binding signal of 0.213 E-score.

As for AACCTAAA, the binding signal stood at 0.102 E-score.

With ATTCTTAA, the binding signal is 0.0471 E-score.

In turn, GCCAGAAC gave a binding signal of -0.0634 E-score.

In the case of CGAAGTAA, the binding signal was 0.078 E-score.

In the case of CACCAAGG, the binding signal is -0.213 E-score.

In turn, CCACCTAA registered a binding signal of -0.104 E-score.

Turning to CCCAGGGC, the binding signal was -0.309 E-score.

Consider ACCTGAAT, for which the binding signal turned out to be 0.192 E-score.

For TGTCACAA, the binding signal is -0.157 E-score.

CACGGGTC: the binding signal was -0.19 E-score.

GATTCTAA yielded a binding signal of 0.134 E-score.

The sequence CAGCTGTC registered a binding signal of -0.0667 E-score.

Sequence GACCGCGC displayed a binding signal of -0.208 E-score.

AGGTGTAA: the binding signal was found to be 0.18 E-score.

On to AGTAGTCG, for which the binding signal amounted to 0.0651 E-score.

AATCGACA: the binding signal came out at 0.0867 E-score.

As to GGGGCGGA, the binding signal is -0.319 E-score.

Sequence CATGTCAC displayed a binding signal of -0.024 E-score.

In the case of CGGTCCGA, the binding signal was -0.123 E-score.

As for AACTATGC, the binding signal was determined as 0.0628 E-score.

With CGTCCATA, the binding signal is -0.0426 E-score.

On to ACAGGGCT, for which the binding signal is -0.141 E-score.

CCCGCGCC showed a binding signal of -0.36 E-score.

In the case of GTCTTATA, the binding signal was 0.253 E-score.

GGCATACA: the binding signal came to 0.218 E-score.

ACTTCGCT gave a binding signal of 0.187 E-score.

Take AGAAGAAC: the binding signal was 0.098 E-score.

Take AGTCGCAT: the binding signal was -0.0319 E-score.

GCCCCGTA registered a binding signal of -0.197 E-score.

CCCCTATA showed a binding signal of -0.146 E-score.

The sequence CTCCAGGC had a binding signal of -0.327 E-score.

Regarding CAGCGGCA, the binding signal was -0.307 E-score.

Sequence AGTCTGCA yielded a binding signal of -0.0272 E-score.
